In all, about 310,000 compounds went through this assay and about 2,200 (0.71%) showed an effect of 50% or more. Effects have a minus sign here. This is one part of the list.
molecular target: human ether-à-go-go-related gene (hERG) potassium channel (human, UniProt Q12809); assay: primary screen, population patch clamp on CHO cells stably expressing hERG
Sequence (Q12809 whole entry, looked up): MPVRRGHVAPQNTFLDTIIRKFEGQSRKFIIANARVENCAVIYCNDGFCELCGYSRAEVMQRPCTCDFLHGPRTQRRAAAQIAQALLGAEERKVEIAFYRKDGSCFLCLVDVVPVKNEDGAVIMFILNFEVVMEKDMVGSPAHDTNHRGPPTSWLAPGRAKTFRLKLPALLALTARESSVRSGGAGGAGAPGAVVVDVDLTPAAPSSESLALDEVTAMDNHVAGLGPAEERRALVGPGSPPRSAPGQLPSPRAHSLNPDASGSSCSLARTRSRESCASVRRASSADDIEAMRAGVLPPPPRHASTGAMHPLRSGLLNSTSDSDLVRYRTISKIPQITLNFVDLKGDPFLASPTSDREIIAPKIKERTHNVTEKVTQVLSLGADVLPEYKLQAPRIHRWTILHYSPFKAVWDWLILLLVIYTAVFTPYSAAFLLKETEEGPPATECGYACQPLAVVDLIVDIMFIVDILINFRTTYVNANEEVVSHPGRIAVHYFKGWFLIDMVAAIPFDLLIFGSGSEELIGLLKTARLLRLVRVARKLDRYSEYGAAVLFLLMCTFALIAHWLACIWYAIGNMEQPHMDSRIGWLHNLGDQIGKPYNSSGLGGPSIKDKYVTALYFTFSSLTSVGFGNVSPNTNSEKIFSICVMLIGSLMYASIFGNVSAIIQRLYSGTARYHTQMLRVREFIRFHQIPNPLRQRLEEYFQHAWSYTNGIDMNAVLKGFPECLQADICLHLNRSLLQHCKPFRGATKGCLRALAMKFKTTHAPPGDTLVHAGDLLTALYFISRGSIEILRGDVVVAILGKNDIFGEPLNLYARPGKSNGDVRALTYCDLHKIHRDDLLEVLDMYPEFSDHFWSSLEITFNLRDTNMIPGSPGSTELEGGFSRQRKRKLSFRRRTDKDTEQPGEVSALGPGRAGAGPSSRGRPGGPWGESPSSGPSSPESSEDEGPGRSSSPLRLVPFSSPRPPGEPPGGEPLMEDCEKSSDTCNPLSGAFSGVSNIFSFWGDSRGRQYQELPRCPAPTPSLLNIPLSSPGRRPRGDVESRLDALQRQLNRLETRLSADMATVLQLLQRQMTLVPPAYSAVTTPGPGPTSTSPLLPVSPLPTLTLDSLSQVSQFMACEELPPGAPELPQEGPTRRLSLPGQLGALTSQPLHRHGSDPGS

SMILES	hERG current change (%, negative = inhibition) at 1uM [%]
COc1ccc(OC)c(NC(=O)Cc2coc3ccc4ccccc4c23)c1	6.41
O=C(O)c1n[nH]c2c1CC(C1CCCCC1)CC2 (stereo not drawn)	16
O=C(O)c1cccc(Sc2ccc(Br)cc2C(=O)O)c1	15.6
COc1cccc(C2=NOC(C(=O)N3CCN(Cc4ccccc4)CC3)C2)c1OC (stereo not drawn)	-3.98
Cc1ccc(C)c(NC(=O)C2CCCN2/C=C/C(=O)C(F)(F)F)c1 (stereo not drawn)	9.47
CC(=O)/C(C#N)=C1\NC(=O)C(Cc2ccc(C)c(Cl)c2)S1 (stereo not drawn)	15.3
CCC(=O)c1ccc(OCC(=O)OCC(=O)N2c3ccccc3NC(=O)C2(C)C)cc1	3.95
Cc1ccc(N2C(=O)c3ccc(C(=O)N4CCN(c5ccc(C)c(C)c5)CC4)cc3C2=O)cc1	3.93
CCC(=O)NNc1nc2c(C)cccc2s1	14.8
Cc1cc(=O)oc2c(C)c(OC(C)C(=O)Nc3ccc(N4CCC(C)CC4)cc3)ccc12 (stereo not drawn)	27.2
C=CCn1c(O)c2ccc(C(=O)N=NC(=O)COc3ccc(OC)cc3)cc2c1O	-5.49
CCC(=O)Nc1ccc(Cl)c(NC(=S)NC(C)=O)c1	9.48
CCOC(=O)C1CCN(C(=O)Cc2ccc(C)cc2)CC1	2.81
O=C(O)c1ccc2c(c1)C(=O)N(CCC1=CCCCC1)C2=O	15.5
O=C(CCCn1ncn2c(cc3occc32)c1=O)NCc1ccccc1F	12.8
O=C(NCC1CCCCC1)c1ccc(F)cc1Cl	1.83
Cc1ccc(NC(=O)CS(=O)CC(=O)N(CC(=O)NC2CCCC2)c2cc(C)ccc2C)cc1 (stereo not drawn)	-4.49
COc1ccc(C(=O)Nc2ccc(SC(F)F)cc2)cc1	5.09
CCN(C(=O)COc1ncnc2ccc(Br)cc12)C1CCS(=O)(=O)C1 (stereo not drawn)	9.82
O=C(O)c1cn(-c2ccc(N3CCCC3)c(F)c2)c2c(F)c(F)c(F)cc2c1=O	6.4
COC(=O)C1=C(c2ccc(S(C)(=O)=O)cc2)C[C@@H]2CC[C@H]1N2C(=O)NC1CCCCC1	-0.273
CCC(COC(=O)NC)NC(=O)Oc1ccccc1 (stereo not drawn)	1.53
O=C(NCCCn1cccn1)C1CCC(=O)N(Cc2cccc(C(F)(F)F)c2)C1 (stereo not drawn)	7.02
Cc1oc(-c2ccccc2Cl)nc1CS(=O)(=O)CC(=O)NCCc1ccccc1	9.38
